Results from PubChem BioAssay AID463173 (ICCB-Longwood Screening Facility, Harvard Medical School, 2010).
The campaign covered roughly 52,000 compounds. About 4,300 (8.3%) were called active. Rule as the data show it: active = survival mostly below about 52% (no sharp cut-off); inactive = mostly above about 56%. Some of the results follow.

These compounds were tested on DeltatarO mutant (assay: growth inhibition of S. aureus wild type versus tarO mutant, primary screen, teichoic acid synthesis inhibitors, RN4220, OD600 (AID 463173)). Conditions: OD600, 18 h, stronger effect = lower value, screened at 18.75 µg/mL (by protocol).
In the case of CCOC(=O)c1ccc(NS(=O)(=O)c2ccc3[nH]c4c(c3c2)CCCCC4)cc1, the survival is reported as inactive: 97%.
In the case of Cc1cccc(NC(=O)Cn2c(=O)oc3cc(S(=O)(=O)NC4CCCC4)ccc32)c1, the survival is reported as inactive: 82%.
With N#Cc1cc2cc3c(cc2nc1SCc1cccnc1)OCCO3 the survival was inactive: 86%.
With O=C(N/N=C/c1ccccc1)C(O)c1ccccc1 (stereo not given) the survival was inactive: 95%.
Cc1cc(NC(=O)C2C3C(=O)N(CCC(C)C)C(C(=O)NC(C)(C)C)C34C=CC2(C)O4)no1 (stereo not given) was tested, and the survival was inactive: 86%.
With Cc1ccc(-c2nn(-c3ccccc3)c3[nH]c(=O)c(CNCCN4CCOCC4)cc23)cc1 the survival was inactive: 115%.
In the case of CCNc1nc(NC(C)C)nc(C(=O)O)n1, the survival is reported as inactive: 94%.
CCN(CCCNC(=O)c1cc(Nc2ccccc2OC)nc2ccccc12)c1cccc(C)c1 was tested, and the survival was inactive: 79%.
For COc1ccc(-c2noc(C3CC(=O)N(c4ccccc4)C3)n2)c(OC)c1 (stereo not given), the survival was inactive: 101%.
For COc1ccc(OC)c(CCNC(=O)c2c3c(nc4ccccc24)C(=O)N(C2CCCCC2)C3)c1, the survival was inactive: 57%.
In the case of Cc1cc(C)c(NC(=O)COc2ccc3c(C)cc(=O)oc3c2)c(C)c1, the survival is reported as inactive: 72%.
With O=C(CSc1nc2c([nH]c3ccccc32)c(=O)n1-c1ccc(Cl)cc1)N1CCCC1 the survival was inactive: 86%.
O=S(=O)(NCC1OCCc2ccccc21)c1ccccc1 (stereo not given) was tested, and the survival was inactive: 91%.
With COc1ccccc1-c1nnn(CC#N)n1 the survival was inactive: 100%.
For O=S(=O)(NCC(Nc1ccc(Cl)cc1)c1ccccc1)c1ccccc1 (stereo not given), the survival was inactive: 66%.
For COc1ccc(-c2cn3nc(SCC(=O)Nc4ccc(C)c(Cl)c4)ccc3n2)cc1, the survival was inactive: 94%.
For COC(=O)c1ccc(NC(=O)CN2C(=O)c3cccc4cccc2c34)cc1, the survival was inactive: 76%.
Cc1ccc(NC(c2ccc(Cl)cc2)c2nnc(-c3cccc(F)c3)o2)cc1C (stereo not given) was tested, and the survival was inactive: 90%.
COC(=O)CCNC(=O)N1CCN(c2nnc(C)c3c(C)n(-c4ccc(Cl)cc4)nc23)CC1 was tested, and the survival was inactive: 96%.
With CC1CCN(c2oc(/C=C/c3ccc(F)cc3)nc2C#N)CC1 the survival was inactive: 67%.
For CCN(CC)c1ccc2c(c1)OC(N)=C(C#N)C2c1cccc(F)c1 (stereo not given), the survival was active: 2%.
For CCOc1ccc(NC(=O)c2cc(S(=O)(=O)N3CCOCC3)ccc2F)cc1, the survival was inactive: 89%.
For CCCOC(=O)c1ccc(Cn2nnc3sc4c(c3c2=O)CCC(C)C4)cc1 (stereo not given), the survival was inactive: 79%.
In the case of COc1ccccc1CNC(=O)c1cnc(N2CCCC2)nc1C, the survival is reported as inactive: 113%.
For CCc1c(C)sc2c1CCN(C(=O)Nc1ccc(F)c(Cl)c1)C2c1ccc(F)cc1 (stereo not given), the survival was active: 46%.
With CCOc1ccc(-c2nc(Cn3c(=O)cc(C)c4c(C)nn(-c5ccc(C)cc5)c43)c(C)o2)cc1 the survival was inactive: 94%.
In the case of COc1ccc(CCNC(=O)CCn2c(=O)c3ccccc3n(CC(=O)Nc3ccc(C)cc3C)c2=O)cc1OC, the survival is reported as inactive: 103%.
With O=C(Nc1ccccc1)C1CCN(S(=O)(=O)c2ccc3[nH]c4c(c3c2)CCCCC4)CC1 the survival was inactive: 90%.
COc1ccccc1NC(=O)C1=C(C)Nc2nc(SCc3ccccc3)nn2C1c1cccnc1 (stereo not given) was tested, and the survival was inactive: 61%.
CCOC(=O)Cn1c(=O)oc2cc(S(=O)(=O)N3CCN(c4ccc(C(C)=O)cc4)CC3)ccc21 was tested, and the survival was inactive: 56%.
CCOc1ccc(S(=O)(=O)c2cn(Cc3cc(C)ccc3C)c3ccc(OCC)cc3c2=O)cc1 was tested, and the survival was inactive: 66%.
In the case of COc1ccc(NC(=O)Cn2nc(C)c3nn(-c4ccc(Cl)cc4)c(C)c3c2=O)cc1, the survival is reported as inactive: 85%.
With COc1cccc(Nc2nc3cc(Cl)c(Cl)cc3nc2-n2nc(C)cc2C)c1 the survival was inactive: 98%.
For Cc1nonc1C(=O)N/N=C/c1ccccc1, the survival was inactive: 105%.
For CCCCNC(=O)C1CCN(S(=O)(=O)c2ccc3c(ccn3CC)c2)CC1, the survival was inactive: 99%.
Cc1cc(C)c(NC(=O)c2ncoc2-c2ccco2)c(C)c1 was tested, and the survival was inactive: 87%.
In the case of CC(C)NC(=O)C1CCN(C(=O)c2cc3sccc3n2Cc2ccc(Cl)cc2)CC1, the survival is reported as inactive: 65%.
For O=C(Nc1ccc(Cl)cc1)N1CCN(c2ccc3nnc(-c4ccccc4)n3n2)CC1, the survival was inactive: 72%.
O=c1[nH]c2cc3c(cc2cc1C(c1nnnn1C1CCCC1)N1CC=C(c2ccc(F)cc2)CC1)OCO3 (stereo not given) was tested, and the survival was inactive: 79%.
In the case of CCOc1ccc(NC(=O)c2cc3c(=O)n(Cc4cccs4)ccc3nc2C)cc1, the survival is reported as inactive: 71%.
With O=C(C1CCC(Cn2c(=O)c3sccc3n(Cc3ccccc3F)c2=O)CC1)N1CCCCC1 (stereo not given) the survival was inactive: 131%.
In the case of COc1ccccc1N(CC(=O)NCCSCc1cccc(Cl)c1)S(C)(=O)=O, the survival is reported as inactive: 60%.
With CCCCC1(O)CC(C)(C)N([O])C(C)(C)C1 the survival was inactive: 95%.
CCOC(=O)c1c(C)[nH]c(CCC(=O)Nc2ccc(Cl)cc2C)c1C was tested, and the survival was inactive: 90%.
For Cc1ccc(CNCc2c(C(=O)O)n(Cc3ccc(C)cc3)c3cc(C)ccc23)cc1, the survival was active: 2%.
COC(=O)c1ccc(OC)c(CN2C(=O)N(c3ccc(C(C)=O)cc3)S(=O)(=O)c3ccccc32)c1 was tested, and the survival was inactive: 85%.
In the case of COc1ccc(-c2noc(CNS(=O)(=O)c3ccc(Br)cc3)n2)cc1OC, the survival is reported as inactive: 70%.
For Brc1ccc(-c2cc(-c3ccccc3)no2)cc1, the survival was inactive: 74%.
For Cc1ccc(-c2noc(CN(C(=O)COc3cc(C)cc(C)c3C)C(C)C)n2)cc1, the survival was active: -3%.
With Cc1cc(C)cc(NC(=O)CSc2nnc(-c3cc4occc4n3C)n2-c2ccccc2C)c1 the survival was inactive: 85%.
In the case of COc1ccc2c(CNC3CCCCCC3)c(C(=O)O)n(Cc3cccc(F)c3)c2c1, the survival is reported as inactive: 86%.
In the case of O=S(=O)(NCCc1csc2nc(-c3ccccc3)nn12)c1ccc(Cl)s1, the survival is reported as inactive: 86%.
For CCN(CC)CCSc1nnc2c3cc(F)ccc3n(C)c2n1, the survival was inactive: 171%.
With CCN(CC)C(=O)c1cc(-c2ccc(Cl)cc2)on1 the survival was active: 36%.
For CCN(C(=O)Cn1nnc2sc(-c3ccccc3)cc2c1=O)c1cccc(C)c1, the survival was active: 50%.
Cc1cc(NC(=O)CCNS(=O)(=O)c2ccc3c(c2)oc(=O)n3C)ccc1Br was tested, and the survival was inactive: 73%.
In the case of CCC(C)NC(=O)CSc1nc2n[nH]c(C)c2c(=N)n1-c1ccc(C)c(Cl)c1 (stereo not given), the survival is reported as inactive: 73%.
With CCSc1nnc(C2CCCN(CC(=O)N3CCN(c4ccccc4)CC3)C2)n1CC (stereo not given) the survival was inactive: 81%.
O=c1oc2ccccc2cc1-c1nnc(-c2cccc(Cl)c2)o1 was tested, and the survival was inactive: 108%.
For CCc1ccc2[nH]c(=O)c(C(c3nnnn3Cc3ccccc3)N(Cc3ccccc3)Cc3ccco3)cc2c1 (stereo not given), the survival was inactive: 101%.
Cc1ccc2oc(=O)c3cnn(CC(=O)N4CCN(c5ccccc5)CC4)c3c2c1 was tested, and the survival was inactive: 123%.
With COC(=O)c1c(NC(=O)CS(=O)(=O)c2ccc(C)cc2)sc2c1CCCC2 the survival was active: -4%.
With Cc1c(Cl)cccc1NC(=O)CCN1C(=O)c2ccccc2Sc2ncccc21 the survival was inactive: 78%.
For CC(=O)c1ccc(NC(=O)CN(C)S(=O)(=O)c2cccc3nsnc23)cc1, the survival was inactive: 98%.
COc1ccccc1-c1cc2nc(C)c(CCC(=O)NCc3cccc(Cl)c3)c(C)n2n1 was tested, and the survival was inactive: 80%.
In the case of CCNc1ccc2c(Cl)cc(=O)oc2c1, the survival is reported as inactive: 81%.
With CCCCn1c(C(C)NC(=O)c2ccccc2)nc2ccccc21 (stereo not given) the survival was inactive: 118%.
For CCOC(=O)C1CCCN(CCC(=O)Nc2cccc(C)c2)C1 (stereo not given), the survival was inactive: 86%.
c1ccc(CN2CCC(NC3CCCC3)CC2)cc1 was tested, and the survival was inactive: 96%.
O=C(NCCC(c1ccccc1)c1ccco1)c1cccs1 (stereo not given) was tested, and the survival was inactive: 65%.
In the case of O=C(Nc1nnc(S(=O)(=O)N2CCCc3ccccc32)s1)c1ccccc1, the survival is reported as active: 27%.
In the case of COc1ccc(NC(=O)CCn2c(=O)c3cccn3c3ccccc32)c(OC)c1, the survival is reported as active: 47%.
In the case of Cc1ccc2c(=O)cc(C(=O)Nc3ccc(S(=O)(=O)N(C)Cc4ccccc4)cc3)oc2c1, the survival is reported as inactive: 106%.
For Cc1ccc(CNC(=O)CN(c2ccc(C)cc2)S(=O)(=O)c2c(C)nn(C)c2C)cc1, the survival was inactive: 73%.
CCN(CC)S(=O)(=O)c1ccc2c(c1)c(=O)c(C(=O)N1CCN(c3cccc(C)c3)C(C)C1)cn2C (stereo not given) was tested, and the survival was inactive: 78%.
Cc1ccn2c(=O)c(C(=O)NC(C)c3ccccc3)c(O)nc2c1 (stereo not given) was tested, and the survival was inactive: 65%.
With COc1ccccc1N1CCN(C(=O)c2cc(-c3ccccc3O)on2)CC1 the survival was inactive: 61%.
N#Cc1cccc(NC(=O)c2cc3c(s2)-c2ccc(Cl)cc2SC3)c1 was tested, and the survival was inactive: 56%.
In the case of Cc1cccnc1NC(=O)c1c(O)c2cc(F)cc3c2n(c1=O)C(C)CC3 (stereo not given), the survival is reported as inactive: 104%.
In the case of COc1ccc(C2=C(Nc3ccc(C)c(C)c3)c3ccccc3C2=O)cc1, the survival is reported as inactive: 93%.
O=C(CN(Cc1cccs1)C(=O)c1csnn1)NC1CCCC1 was tested, and the survival was inactive: 62%.
In the case of CCc1ccccc1NC(=O)c1cc(S(=O)(=O)N2CCCc3ccccc32)ccc1F, the survival is reported as inactive: 91%.
For Cc1c(C(=O)Nc2ccc(F)cc2)sc2nc[nH]c(=O)c12, the survival was inactive: 122%.
In the case of CC(C)CCn1c(=O)c2sccc2n2c(CCCC(=O)NCc3ccc(F)cc3)nnc12, the survival is reported as inactive: 88%.
O=C(Cn1c(=O)c2cccn2c2ccc(F)cc21)N1CCN(c2ccc(F)cc2)CC1 was tested, and the survival was inactive: 71%.
For Fc1cccc(-n2ncc3c2ncn2nc(-c4ccccc4Cl)nc32)c1, the survival was inactive: 78%.
For CCOc1ccc(N(C)C(CNS(=O)(=O)c2ccccc2)c2ccccc2)cc1 (stereo not given), the survival was inactive: 87%.
In the case of O=C(COc1ccccc1)Nc1cccc(-c2cn3cccnc3n2)c1, the survival is reported as inactive: 81%.
Cc1cccc(N2CCN(C(=O)CCn3c(=O)c4cccn4c4cccnc43)CC2)c1C was tested, and the survival was inactive: 59%.
Cc1nc(SCC(=O)Nc2ccccc2F)[nH]c(=O)c1Cc1ccccc1 was tested, and the survival was inactive: 74%.
